Hit rate of the full screen: of about 310,000 compounds, about 14,000 (4.5%) showed an effect of 50% or more. The effect is printed as a negative number. Some of the results follow.
target: human ether-à-go-go-related gene (hERG) potassium channel (human, UniProt Q12809); experiment: primary screen, population patch clamp on CHO cells stably expressing hERG
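Note: peak tail current of the secondary pulse compared with the same well before compound.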

human ether-à-go-go-related gene (hERG) potassium channel, sequence (Q12809 whole entry, looked up): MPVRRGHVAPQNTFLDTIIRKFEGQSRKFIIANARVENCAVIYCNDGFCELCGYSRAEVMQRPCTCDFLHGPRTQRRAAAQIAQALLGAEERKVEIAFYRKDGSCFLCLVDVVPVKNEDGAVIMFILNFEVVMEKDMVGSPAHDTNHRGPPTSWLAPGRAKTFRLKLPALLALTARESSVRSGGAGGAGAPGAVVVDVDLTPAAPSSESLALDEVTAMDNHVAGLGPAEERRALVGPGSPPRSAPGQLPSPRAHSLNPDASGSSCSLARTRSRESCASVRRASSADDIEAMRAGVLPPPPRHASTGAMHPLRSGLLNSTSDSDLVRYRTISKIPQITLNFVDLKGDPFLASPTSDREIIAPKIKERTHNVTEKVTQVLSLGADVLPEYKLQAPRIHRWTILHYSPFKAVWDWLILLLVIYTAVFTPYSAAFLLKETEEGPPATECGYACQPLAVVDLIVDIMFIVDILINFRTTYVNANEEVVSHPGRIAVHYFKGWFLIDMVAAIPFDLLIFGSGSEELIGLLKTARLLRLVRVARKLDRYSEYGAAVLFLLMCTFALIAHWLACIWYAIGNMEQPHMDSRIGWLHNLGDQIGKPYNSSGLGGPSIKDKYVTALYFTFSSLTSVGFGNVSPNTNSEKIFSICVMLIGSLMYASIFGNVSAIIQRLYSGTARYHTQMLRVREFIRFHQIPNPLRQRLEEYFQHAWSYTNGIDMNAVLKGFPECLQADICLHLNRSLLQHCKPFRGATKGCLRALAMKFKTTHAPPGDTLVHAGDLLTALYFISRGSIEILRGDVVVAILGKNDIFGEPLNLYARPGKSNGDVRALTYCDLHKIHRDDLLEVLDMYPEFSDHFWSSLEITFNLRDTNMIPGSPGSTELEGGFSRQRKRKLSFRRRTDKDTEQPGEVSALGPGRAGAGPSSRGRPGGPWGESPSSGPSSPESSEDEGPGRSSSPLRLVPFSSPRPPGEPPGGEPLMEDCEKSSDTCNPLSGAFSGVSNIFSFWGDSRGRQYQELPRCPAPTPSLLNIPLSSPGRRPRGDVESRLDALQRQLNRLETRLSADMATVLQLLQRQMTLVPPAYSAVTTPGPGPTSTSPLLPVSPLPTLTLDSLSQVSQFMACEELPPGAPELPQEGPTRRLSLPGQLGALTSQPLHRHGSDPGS

Row | Compound | hERG current change (%, negative = inhibition) at 10uM [%]
1 | CCCC(C)C(=O)N(Cc1ccccc1)c1ccccn1 (stereo not shown) | 5.79
2 | CC(C)(C)C(=O)O/N=C1\CCS(=O)(=O)c2sccc21 | -0.401
3 | COc1ccccc1CCC(=O)OCC(=O)Nc1ccc(C)c(S(=O)(=O)N2CCCCC2)c1 | 0.989
4 | CCCCc1c(C)nc2cc(-c3ccco3)[nH]n2c1=O | -8.36
5 | COC(=O)c1cc(Nc2cc(C)c3ccc(O)cc3n2)cc(C(=O)OC)c1 | 6.58
6 | COc1ccc(/C=C2/SC(=O)N(CC(=O)Nc3cc(C)on3)C2=O)cc1OC | 2.84
7 | O=C1CC(NCc2ccncc2)C(=O)N1c1ccccc1 (stereo not shown) | 4.07
8 | Cc1ccc(C(=O)NCCNC(=O)c2ccco2)cc1C | 26.9
9 | COC(=O)c1ccc(CSc2nnnn2C)o1 | 23.2
10 | O=C(Nc1nccs1)c1cc(-c2ccccc2)nc2ccccc12 | 8.65
11 | Cn1c(=O)c(C(=O)c2ccccc2)nc2ccccc21 | -14.2
12 | Cn1c(=O)c2c(-c3ccccc3)n(C3CCCCC3)cc2n(C)c1=O | 7.3
13 | CCOc1ccc2nc(NC(=O)c3ccc(S(=O)(=O)N4CCOCC4)cc3)sc2c1 | 6.64
14 | CCCCSc1nnc(-c2ccccc2)c2ccccc12 | -37.3
15 | O=C(NCC(=O)N(c1ccc(F)cc1)C(C(=O)NC1CCCC1)c1cccnc1)c1cccs1 (stereo not shown) | 7.21
16 | O=C(COC(=O)c1cccnc1Cl)Nc1nc(-c2ccccc2)cs1 | -10.3
17 | Cc1cccc(NC(=O)CCNS(=O)(=O)c2cc(Br)cnc2N)c1C | 15.8
18 | O=C(CN1CCc2ccccc21)NC(=O)NCc1ccccc1 | 0.748
19 | CCC(=O)Oc1oc(-c2ccccc2)nc1C=Nc1ccccc1OC | 13.1
20 | O=C(CSc1ncn[nH]1)NCCc1ccc(Cl)cc1 | -25.6
21 | CCOc1ccccc1C1C(C(=O)Nc2ccc(OC)cc2)=C(C)Nc2nc(CCCO)nn21 (stereo not shown) | 0.38
22 | COc1cc(NC(=O)C2CC(c3cccc(OC)c3OC)=NO2)cc(OC)c1OC (stereo not shown) | -17

Row | Compound | hERG current change (%, negative = inhibition) at 10uM [%]
23 | O=C(Cc1ccccc1)N/N=C/c1ccc(S(=O)(=O)[O-])o1 | 26.2
24 | C/C(=N\OC(=O)c1c(-c2ccccc2Cl)noc1C)c1nccs1 | -2.44
25 | Cc1cc(Nc2ccc3c(c2)OCCO3)n2ncnc2n1 | -42.7
26 | CCOC(=O)CNC(=O)CNC(=O)c1nn(-c2ccc(OC)c(Cl)c2)c(=O)c2ccccc12 | 2.21
27 | C[N+]1(C)[C@@H]2CC[C@H]1CC(OC(=O)C(c1ccccc1)c1ccccc1)C2.[I-] (stereo partly shown) | 18
28 | CC(NC(=O)c1cccnc1)C(c1cccs1)N1CCN(c2ccccc2F)CC1 (stereo not shown) | -12.3
29 | CCN(CC)S(=O)(=O)c1ccc(NS(=O)(=O)c2ccc3oc(=O)[nH]c3c2)cc1 | 22.3
30 | COc1ccccc1N1CCN(C(=O)CN(c2cc(C)cc(C)c2)S(C)(=O)=O)CC1 | 0.227
31 | COc1cc(/C=C2\SC(=N)N(c3ccc4c(c3)OCO4)C2=O)cc(OC)c1O | 8.13
32 | CCC(=O)NC(c1ccco1)c1cc(Cl)c2cccnc2c1OC (stereo not shown) | -7.91
33 | C=CCOc1ccccc1OCC(O)CNC(C)C.Cl (stereo not shown) | -9.52
34 | O=C(NCc1ccccn1)c1ccc(=O)oc1 | 1.42
35 | O=C(c1nc2ccccn2c1CN1CCCC(c2nc3ccccc3o2)C1)N1CCCC1 (stereo not shown) | 5.11
36 | O=C(CCc1ccccc1)N1CCN(c2ccc(Cl)cc2)CC1 | -35.1
37 | O=S(=O)(Nc1ncccn1)c1ccc(NC(=S)NCc2ccco2)cc1 | 20.3
38 | CCC(=O)Nc1ccc(S(=O)(=O)N2CCOCC2)cc1 | -6.39
39 | CC(=O)N1CCc2cc(Br)cc(S(=O)(=O)N3CCCCCC3)c21 | -17.5
40 | CC1=NN(c2ccc(C)cc2)C(=O)/C1=C\C=C\c1ccccc1 | 16
41 | Cn1c(=O)oc2cc(S(=O)(=O)NCCCN3CCCC3=O)ccc21 | 17.2
42 | COc1ccc(C)cc1N(C(=O)c1snc(C(N)=O)c1N)C(C(=O)NC1CCCC1)c1ccc(F)cc1 (stereo not shown) | -16.1
43 | O=C(N/N=C/c1ccoc1)c1cccc(OC(F)(F)C(F)F)c1 | -11.6
44 | Cc1cccc(NC(=O)c2ccc(C(=O)c3ccccc3)o2)c1 | -1.01

Row | Compound | hERG current change (%, negative = inhibition) at 10uM [%]
45 | Cc1cc(C)cc(NC(=O)Nc2ccc(Cl)cn2)c1 | 17.8
46 | CSc1ccc(/C=N\NC(=O)CNc2ccc(C)cc2)cc1 | -2.08
47 | Cc1ccc(-n2c(C)nc3c(cnn3-c3ccc(F)cc3)c2=O)cc1C | 18.8
48 | CC(=O)N1CCN(c2ccc(NCc3cccs3)cc2)CC1 | 8.42
49 | CC(C)C(NC(=O)CCN1C(=O)c2ccccc2C1=O)c1ccccc1 (stereo not shown) | 11.4
50 | C=C1CCC[C@]2(C)C[C@H]3OC(=O)C(CN(C)CC(OC)OC)[C@H]3CC12 (stereo partly shown) | 18.1
51 | COc1nc(Nc2ccc(O)cc2)nc(OC(C(F)(F)F)C(F)(F)F)n1 | -38.9
52 | O=C(CN(c1ccc2c(c1)OCCO2)S(=O)(=O)c1ccccc1)NCC1CCCO1 (stereo not shown) | -3.97
53 | O=C(O)c1ccc2nc(-c3ccccc3)sc2c1 | 8.93
54 | Cc1ccc(NC(=O)C2CCCN2C(=O)Oc2ccccc2)cc1C (stereo not shown) | -11.4
55 | CCOc1ccc(S(=O)(=O)NCCC(=O)N(C)Cc2ccc(C)o2)cc1 | -24.1
56 | CCOn1c(=O)c(-c2ccc(OC)cc2)[n+]([O-])c2ccccc21 | -8.86
57 | CCCCN(C)C(=O)c1nc2ccccn2c1CN1CCN(c2ncccn2)CC1 | -10.2
58 | COC(=O)CSc1nnc(CNC(=O)c2cccs2)n1-c1cc(OC)ccc1OC | -5.9
59 | CCN1CNC(=S)N(c2cccc(C)c2C)C1 | 1.39
60 | O=C(CCCN1C(=O)[C@H]2CC=CC[C@H]2C1=O)NCc1nc(-c2ccccc2)no1 | 18.6
61 | COc1ccc(C)cc1NC(=O)CSc1nnc(-c2ccc(Br)cc2)o1 | -1.05
62 | O=C(O)c1cccc(N2C(=O)CSC2=S)c1 | 12.8
63 | O=C(Nc1cccc2c1CCCC2)c1ccncc1 | -1.71
64 | CC(C)(C)c1ccc(C(=O)NCC(=O)N2CCNC(=O)C2)cc1 | -3.47
65 | Cc1oc(-c2ccccc2Cl)nc1CSc1nc2c(c(=O)[nH]1)CCC2 | 12.1
66 | Cc1c(NP(=S)(C(C)(C)C)C(C)(C)C)c(=O)n(-c2ccccc2)n1C | 9.18

Row | Compound | hERG current change (%, negative = inhibition) at 10uM [%]
67 | Cc1ccc(C(=O)COC(=O)c2cccc([N+](=O)[O-])c2)s1 | 4.02
68 | COc1ccc(C2N=C(c3ccccc3)NO2)cc1OC (stereo not shown) | 9.76
69 | CCC(=O)N1CCc2cc(S(=O)(=O)CCC(=O)N(C)c3ccc(OC)cc3)ccc21 | -7.43
70 | COC(=O)c1ccc(CSc2ccc(S(=O)(=O)N3CCCCC3)cn2)cc1 | 18.3
71 | CCC1=NN(C(=O)C(=O)Nc2ccc(Br)cc2)C(O)(C(F)(F)F)C1 (stereo not shown) | 2.65
72 | CCOC(=O)CC1COCCN1Cc1cn(C)nc1-c1ccccc1F (stereo not shown) | 0.506
73 | CCOC(=O)c1c(C#N)cnn1-c1ccc(C)cc1 | 9.18
74 | CCCCN(C)CCCNC(=O)c1cn(CC)c2ccc(S(=O)(=O)N3CCOCC3)cc2c1=O | 10.3
75 | C=CCn1c(SCC(=O)Nc2nccs2)nnc1-c1ccco1 | -48.9
76 | NC(=O)c1ccc(-n2c(CCC(=O)O)ccc2-c2cccs2)cc1 | 20.2
77 | COc1ccc(/C=C2\Sc3ccc(C(=O)NCCN4CCCCCC4)cc3N(C)C2=O)cc1 | -42.6
78 | CCc1ccc(C(=O)NC(C(=O)O)C(C)C)cc1 (stereo not shown) | -4.59
79 | CCOc1ccccc1Nc1ncnc2c1cnn2-c1ccccc1 | -1.7
80 | O=C(CCN1C(=O)c2ccccc2C1=O)Nc1ccccc1C(F)(F)F | -3
81 | O=C(Nc1ccc(F)cc1F)C1CCCN1S(=O)(=O)c1ccc(-c2ccc(=O)[nH]n2)s1 (stereo not shown) | -33.5
82 | COc1ccc(-n2nc(C(=O)NCc3ccco3)c3c4ccccc4n(C)c3c2=O)cc1Cl | 9.8
83 | CCC(c1nnnn1C(C)C)N1CCN(C2CCCC2)CC1.Cl (stereo not shown) | -7.11
84 | CCN1C(=O)/C(=C\c2ccncc2)SC1=Nc1ccc(C)c(C)c1 | 9.65
85 | O=S(=O)(Oc1ccc(C(=S)N2CCOCC2)cc1)c1ccc(Cl)cc1 | -0.0264
86 | COc1ccc(N2CCN(C3CCCN(Cc4ccc(F)c(F)c4)C3)CC2)cc1 (stereo not shown) | -64.6
87 | COc1ccc(C(=O)NCC(=O)OCC(=O)c2cc(OC)c(OC)c(OC)c2)cc1OC | 28.5
88 | COc1ccc(C2SCC(=O)N2c2nnc(C34CC5CC(CC(C5)C3)C4)s2)cc1 (stereo not shown) | 1.93

— article PMC4336329 (PLoS ONE, 2015)
